This note sets out measurements from PubChem BioAssay AID1508624 (National Center for Advancing Translational Sciences (NCATS), 2021).

About 120 (0.25%) of roughly 48,000 compounds were called active. Inconclusive results (about 4%) are left out. Calls follow the shape of the dose curve; as a rule, active = well fitted activation curve with a large enough effect; inconclusive = small, poorly fitted or top-dose-only effect, or another doubt; inactive = no such curve, though single readings can be large or run the other way. The list shows a part of the results.

The nature of this assay: Primary qHTS for Identification of Small Molecule Activators of Huntingtin-Antisense Promoter Activity. Also: nearly all actives have a fitted effect of over 55% in size. To be noted: HEK293 HTT-AS promoter firefly luciferase reporter, 24 h; series mostly up to 57.5 µM; activity change, positive = activation: at the top concentration. Put shortly:
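Quantitative HTS used concentration series of up to 57.5 uM final on HEK293 luciferase reporter cells, 24 h at 37 degrees C. Readout was Dual-Glo firefly luminescence.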
With `O=C(NCc1ccc(Cl)cc1)c1cc2ccc3cccnc3c2[nH]1`, the “activity change, positive = activation” value was inactive: 1.15%.
Then `COc1ccccc1N1CCN(S(=O)(=O)c2ccc(-c3ccno3)cc2OC)CC1`, with inactive: -33.2%.
Then `Cc1ccc(NC(=O)NCCOCCn2c(=O)oc3ccccc32)c(C)c1`, with inactive: -6.25%; and `COc1cccc(-n2c(SCC(=O)Nc3cccc(C)c3)nc3c([nH]c4ccccc43)c2=O)c1`, with inactive: -21.9%; and `CC(C)c1ccc(Cc2cn3cc(-c4cc5ccccc5oc4=O)nc3s2)cc1`, with inactive: -22%.
Take `COc1ccc(OC)c(C2=NS(=O)(=O)N(C)C(C(=O)Nc3ccc(C(C)=O)cc3)=C2)c1`: the “activity change, positive = activation” value was inactive: -25.7%.
As for `COc1cc(CN(C(=O)COc2ccc(Cl)cc2)c2ccccn2)cc(OC)c1OC`, the figure is inactive: -34.3%.
As for `Cc1ccc(C)c(NC(=O)C2CCN(c3ncnc4c3nc3n4CCCCC3)CC2)c1`, the figure is inactive: 0.179%.
As for `Cc1cccc(C)c1NC(=O)NCCCN1CCN(c2ccccc2)CC1`, the figure is inactive: -2.71%.
In the case of `CC(C)(C)c1ccc(C(=O)NNc2ncnc3c2cnn3-c2ccc(Cl)cc2)cc1`, the “activity change, positive = activation” value is inactive: -32.6%.
Consider `CNC(=O)C1CCC(Cn2c(=O)c3sccc3n(CC(=O)NCc3ccc(C)cc3)c2=O)CC1` (centres undefined), for which the “activity change, positive = activation” value was inactive: -15.6%.
As for `Cc1cc(C)c2c(n1)SCC(=O)N2CC(=O)Nc1ccccc1C`, the figure is inactive: -30.9%.
Then `Cn1c(=O)oc2cc(S(=O)(=O)N3CCCC(C(=O)NCc4ccccc4Cl)C3)ccc21` (centres undefined), with inactive: -27.8%; and `COc1ccc(NC(=O)Cn2c(=O)oc3cc(Cl)ccc32)c(OC)c1`, with inactive: -17.1%.
As for `Cc1ccc(C)c(NC(=O)CCCn2c(C)c3cnn(-c4ccccc4)c(=O)c3c2C)c1`, the figure is inactive: -13.8%.
Take `CCc1ccc(NC(=O)CSc2nc(C)c(C(=O)Nc3ccc(Cl)cc3)c(-c3ccc(OC)cc3)c2C#N)cc1`: the “activity change, positive = activation” value was inactive: 12.1%.
For the compound `Cc1ccccc1C(=O)Nc1sc2c(c1C(=O)O)CCC(C(C)(C)C)C2` (centres undefined), the “activity change, positive = activation” value was inactive: -37.2%.
As for `O=C(CSc1nc2c([nH]c3ccccc32)c(=O)n1-c1ccc(F)cc1)NCC1CCCO1` (centres undefined), the figure is inactive: -25.8%; as for `O=C(CSc1nc2c([nH]c3ccccc32)c(=O)n1-c1ccccc1)N1CCCc2ccccc21`, inactive: -8.11%; as for `O=C(Nc1ccc(Br)cc1)c1cc2nc(-c3ccccc3)cc(-c3ccccc3)n2n1`, inactive: 0.406%.
Then `CCOc1ccc(-c2nnc(SCC(=O)NCc3ccc(Cl)cc3)o2)cc1`, with inactive: -49%.
For `Cc1ccc(NC(=O)c2cc(S(=O)(=O)NC3CCCCCC3)ccc2F)cc1F`, the “activity change, positive = activation” value was inactive: -47.6%.
`COc1ccc2[nH]cc(CCN=C(NC(=O)c3cccc(Cl)c3)Nc3nc(C)cc(C)n3)c2c1`: the “activity change, positive = activation” value is inactive: -15.3%.
Consider `CCc1ccccc1NC(=O)CC(C)S(=O)(=O)c1ccc2c(c1)NC(=O)CO2` (centres undefined), for which the “activity change, positive = activation” value is inactive: -8.22%.
As for `CCc1ccc2occ(CC(=O)Nc3nnc(C)s3)c2c1`, the figure is inactive: -8.59%; as for `CCNC(=O)C1CCN(c2nc3ccccc3nc2C(F)(F)F)CC1`, inactive: 10.2%; as for `O=C(CSc1nc2c([nH]c3ccccc32)c(=O)n1-c1ccccc1)NCc1ccc(F)cc1`, inactive: -32.5%.
As for `O=C(CN1C(=O)C2(SCC(=O)N2c2ccccc2)c2ccccc21)Nc1ccccc1C(F)(F)F` (centres undefined), the figure is inactive: -16.3%.
Then `CC(=O)c1nn(-c2ccc(OC(F)(F)F)cc2)nc1Nc1ccc(Cl)cc1`, with inactive: -1.29%; and `CCOc1ccc(NC(=O)Cn2cc(S(=O)(=O)c3ccc(C)cc3)c(=O)c3cc(F)ccc32)cc1`, with inactive: -26.5%.
For `COc1ccc(C(=O)c2cnc3ccc(C)cc3c2S(=O)(=O)c2ccccc2)cc1`, the “activity change, positive = activation” value was inactive: -53.2%.
Then `COc1ccc(S(=O)(=O)N2CCC(C(=O)NC(C)c3ccccc3)CC2)cc1` (centres undefined), with inactive: 0.852%.
Then `Cc1ccc(CN2C(=O)C(O)(CC(=O)c3ccc(C)cc3)c3ccccc32)cc1` (centres undefined), with inactive: -19.1%.
Consider `CCc1nn(CCCC(=O)NCc2ccc(OC)c(OC)c2)c(=O)c2cc3occc3n12`, for which the “activity change, positive = activation” value was inactive: -18.5%.
As for `COC(=O)C1CCN(c2csc3ccc(C)cc3c2=O)CC1`, the figure is inactive: 24.4%; as for `CCN(CCCNC(=O)c1ccc(Sc2ccc(Cl)cc2)c(NC(C)=O)c1)c1cccc(C)c1`, inactive: -31.5%.
Take `c1ccc(N2CCN(c3ncnc4c3nc3n4CCCCC3)CC2)cc1`: the “activity change, positive = activation” value was inactive: -53.5%.
Then `Cc1ccc(C)c(NC(=O)CN(Cc2ccccc2)S(=O)(=O)c2ccc3nc(C)sc3c2)c1`, with inactive: -25.9%; and `CN1c2ccccc2-c2nc(SCC(=O)Nc3ccccc3)ncc2S1(=O)=O`, with inactive: -22.8%.
For `CCN(CC)c1ccc(-c2nc(-c3ccccn3)no2)cc1[N+](=O)[O-]`, the “activity change, positive = activation” value is inactive: -43.7%.
Then `NCc1ccccc1Sc1ccccc1CO`, with inactive: -1.84%; and `COc1cc(C2Oc3nc(SC)nnc3-c3ccccc3N2C(C)=O)cc(Cl)c1OC` (centres undefined), with inactive: 9.37% [at 11.5 µM, percent change from vehicle, -100% = no light].
On to `Cc1cc(Br)ccc1NC(=O)c1sc2ncn(Cc3ccccc3Cl)c(=O)c2c1C`, for which the “activity change, positive = activation” value is inactive: -3.77%.
As for `O=C(CSc1oc(-c2ccco2)nc1S(=O)(=O)c1ccc(Br)cc1)c1ccc(Cl)cc1`, the figure is inactive: -19.4%.
Then `C[C@]1(c2nc3c(C(N)=O)cccc3[nH]2)CCCN1`, with inactive: -9.03%; and `CCN1C(=O)c2ccccc2S(=O)(=O)c2ccc(C(=O)NCc3ccc(F)cc3)cc21`, with inactive: -27.7%; and `Cc1ccc(CNC(=O)CN2C(=O)COc3ccc(S(=O)(=O)N4CCC(C)CC4)cc32)cc1`, with inactive: -26.2%.
On to `Nc1c(NC/C=C\COc2cc(CN3CCCCC3)ccn2)c(=O)c1=O`, for which the “activity change, positive = activation” value is inactive: -8.57% [at 25.1 µM, percent change from vehicle, -100% = no light].
In the case of `CC(=O)N[C@@H](CS)C(=O)O`, the “activity change, positive = activation” value is inactive: 0.523%.
As for `COc1ccc(NC(=O)c2ccc3[nH]c(C)cc(=O)c3c2)cc1`, the figure is inactive: 2.4%; as for `Cc1ccc(NC(=O)Cc2coc3c(C)c(C)ccc23)c(C)c1`, inactive: -8.47%.
Then `Cc1ccc(-n2cc(C(=O)OCc3ccc(Cl)cc3)c3ccccc3c2=O)cc1`, with inactive: -17.9%; and `Cc1ccc(N2CC(NC(=O)C3CCCC3)CC2=O)cc1` (centres undefined), with inactive: -16.1%.
For the compound `CC(C)CCNC(=O)c1ccc(NC(=O)N2CCCCc3ccccc32)cc1`, the “activity change, positive = activation” value is inactive: -3.29%.
As for `COc1cccc(N2CCN(C(=O)Cn3ncc4c3-c3ccccc3OC4)CC2)c1`, the “activity change, positive = activation” value is inactive: -21.5%.
Then `CCOc1ccc(Nc2c(S(=O)(=O)c3ccccc3)cnc3ccc(CC)cc23)cc1`, with inactive: -30.8%.
Then `Cc1ccc(C(=O)c2cn(CC(=O)Nc3ccc4c(c3)OCCO4)c3nc(C)ccc3c2=O)cc1`, with inactive: -18.9%; and `O=C(CSc1nc2ccccc2n1Cc1ccccc1)NCc1ccccc1`, with inactive: -15.3%.
Then `CC(C)CC(NC(=O)C1CCC(C)CC1)C(=O)OCC(=O)c1ccc(Cl)cc1` (centres undefined), with inactive: -22.6%; and `CSc1oc(-c2ccc(F)cc2)nc1S(=O)(=O)c1ccc(Br)cc1`, with inactive: -14.4%.
On to `CN1Cc2cc(C(=O)N3CCC(C4CCNCC4)CC3)ccc2N[C@@H](CC(=O)O)C1=O`, for which the “activity change, positive = activation” value was inactive: -3.12%.
Then `Cc1cccc(NC(=O)CCS(=O)(=O)c2cc(Br)cc3c2N(C(=O)C2CC2)CC3)c1C`, with inactive: -7.45%.
As for `CC1=C(C(=O)Nc2cccnc2)C(c2ccc(F)cc2)n2nc(SCc3ccccc3)nc2N1` (centres undefined), the figure is inactive: -4.28%; as for `CCCNC(=O)Cn1nc(C)c2c(C)n(-c3ccccc3)nc2c1=O`, inactive: -15.1%.
Then `CC1CCN(S(=O)(=O)c2cccc(C(=O)N(C)C3(C)CCS(=O)(=O)C3)c2)CC1` (centres undefined), with inactive: -22.4%; and `COc1cc(OC)c(NC(=O)CSc2nc3ccncc3[nH]2)cc1Cl`, with inactive: -33.4%.
Turning to `CC(NC(=O)C1CCN(C(=O)N2CCOc3ccccc32)CC1)c1ccccc1` (centres undefined), the “activity change, positive = activation” value is inactive: -5.28%.
As for `CCCCOC(=O)CCCCCCCCC(=O)OCCCC`, the figure is inactive: 1.76%.
Then `CCCCNC(=O)CSc1nc2ccccc2nc1Cc1ccccc1`, with inactive: -8.07%; and `Cc1ccc(NC(=O)N2CCC(CN3CCCCC3)CC2)c(Cl)c1`, with inactive: -8.32%.
Then `CCn1cc(/C=C(\NC(=O)c2ccc(OC)c(OC)c2)C(=O)NCCCn2ccnc2)c2ccccc21`, with inactive: -6.62%; and `CCOC(=O)c1cc(-c2ccc(OC)cc2)n(CCC(=O)NCCc2ccc(OCC)c(OCC)c2)c1C`, with inactive: -24.1%; and `Cc1nc2sccn2c(=O)c1S(=O)(=O)Nc1cccc(Cl)c1C`, with inactive: -23%.
Turning to `CC(=O)c1ccc(N2CCN(S(=O)(=O)c3ccc(-c4cnc(C5CC5)o4)cc3)CC2)cc1`, the “activity change, positive = activation” value is inactive: 0.454%.
Turning to `Cc1ccc(OCC(=O)Nc2ccc(C(=O)OCc3cc(=O)n4ccsc4n3)cc2)cc1C`, the “activity change, positive = activation” value was inactive: -22.9%.
Then `CC1CCN(c2nc3c(S(=O)(=O)c4cccc(Cl)c4)nnn3c3ccsc23)CC1`, with inactive: -30.3%; and `Cc1ccc(N2CCN(C(=O)CCS(=O)(=O)c3cc4c(cc3Cl)NC(=O)CO4)CC2)c(C)c1`, with inactive: -29.7%.
As for `COc1cc([N+](=O)[O-])ccc1NC(=O)N1CCC2(CC1)Nc1cc(F)ccc1-n1cccc12`, the figure is inactive: -27.8%.
As for `Cc1ccccc1Nc1nnc(-c2ccc(C)c(S(=O)(=O)NCC3CCCO3)c2)c2ccccc12` (centres undefined), the figure is inactive: -30.6%; as for `CCOC(=O)c1c(-c2ccc(OC)cc2)oc2ccc(OCc3ccc(F)cc3F)cc12`, inactive: 10.1% [at 11.5 µM, percent change from vehicle, -100% = no light].
In the case of `CC(C)(C)OC(=O)N1CCC(c2c(C(=O)N3CCN(c4ncccn4)CC3)cnn2-c2ccc(F)cc2)CC1`, the “activity change, positive = activation” value was inactive: -1.4%.
Consider `O=C(O)Cc1cccc(OCCCN(Cc2cccc(C(F)(F)F)c2Cl)CC(c2ccccc2)c2ccccc2)c1`, for which the “activity change, positive = activation” value was inactive: -12%.
Regarding `CN(C)c1ccc(CNC(=O)C2CCN(C(=O)c3ccc(-n4ccc5ccccc54)s3)CC2)cc1`, the “activity change, positive = activation” value is inactive: -11.4%.
For `Cc1cc(C)cc(OC(C)C(=O)Nc2nc3c(s2)CCCC3)c1` (centres undefined), the “activity change, positive = activation” value was inactive: -23.2%.
Then `COc1ccc(NC(=O)c2ccco2)cc1NC(=O)c1ccc(OC(C)C)cc1`, with inactive: -17.9%; and `CCOC(=O)c1ccc(NC(=O)C2CCCN(c3cnccn3)C2)cc1` (centres undefined), with inactive: 25.8%; and `CC(=O)N1c2ccccc2CC1C(=O)N1CCN(c2ccccc2F)CC1` (centres undefined), with inactive: -6.01%.
As for `CCOC(=O)C1=C(CNCc2ccc(Cl)cc2)NC(=O)NC1c1ccccc1` (centres undefined), the “activity change, positive = activation” value is inactive: -41.2%.
As for `COc1cccc(/C=C(\C#N)c2nc3ccccc3c(=O)[nH]2)c1OC`, the figure is inactive: -19.8%.
`COc1cc(NC(=O)Cn2cc(S(=O)(=O)N3CCC(C)CC3)c3ccccc3c2=O)cc(OC)c1OC`: the “activity change, positive = activation” value was inactive: -26.9%.
As for `CCCC(C(=O)Nc1cc(C)c(Cl)cc1OC)N1Cc2ccccc2C1=O` (centres undefined), the figure is inactive: -18.9%.
Then `CCOc1ccc(Nc2ncnc3onc(-c4ccc(Cl)cc4)c23)cc1`, with inactive: -15.4%.
`COc1ccc(CCNC(=O)Cn2nc(-c3ccc(Cl)cc3)ccc2=O)cc1OC`: the “activity change, positive = activation” value is inactive: -19.1%.
As for `COc1cn(CC(=O)Nc2cccc(C)c2)c(CN2CCCCC2)cc1=O`, the figure is inactive: -4.51%.
